The values below come from PubChem BioAssay AID360 (National Center for Advancing Translational Sciences (NCATS), 2006).

The campaign covered roughly 48,000 compounds. About 550 (1.1%) were called active. Inconclusive results (about 4%) are left out. Rule as the data show it: active = potency below about 15 µM; inconclusive = mostly about 16 µM to 33 µM; inactive = weaker than that. Some of the results follow.
Potency is read from the fitted curve at half-maximal effect.

Chain of UniProt P04062 (P04062 whole entry, looked up): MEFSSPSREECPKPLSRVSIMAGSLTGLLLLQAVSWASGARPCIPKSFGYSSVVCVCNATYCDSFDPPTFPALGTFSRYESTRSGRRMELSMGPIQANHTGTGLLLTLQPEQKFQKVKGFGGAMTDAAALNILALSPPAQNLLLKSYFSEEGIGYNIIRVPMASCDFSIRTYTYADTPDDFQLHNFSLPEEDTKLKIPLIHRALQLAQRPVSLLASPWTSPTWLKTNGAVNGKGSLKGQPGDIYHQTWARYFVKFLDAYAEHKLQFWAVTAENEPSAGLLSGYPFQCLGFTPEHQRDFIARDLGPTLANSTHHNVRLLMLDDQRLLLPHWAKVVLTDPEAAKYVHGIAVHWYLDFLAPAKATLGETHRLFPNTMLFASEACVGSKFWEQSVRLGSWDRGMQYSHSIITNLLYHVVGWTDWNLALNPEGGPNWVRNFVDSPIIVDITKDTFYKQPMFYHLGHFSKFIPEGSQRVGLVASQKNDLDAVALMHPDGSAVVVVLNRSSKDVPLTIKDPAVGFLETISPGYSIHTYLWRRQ

This test deals with Lysosomal acid glucosylceramidase (Homo sapiens) (UniProt P04062). Briefly: Glucocerebrosidase.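 Also: the screen sought inhibitors.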 Conditions: purified enzyme, resorufin glucoside fluorescence (screen aimed at inhibitors), 20 min; series mostly up to 77 µM. In a few lines:
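Wild-type enzyme at 0.2 nM final in 50mM citric acid/KH2PO4, 10mM sodium taurocholate, 0.01% tween-20, pH 5.9, with resorufin beta-D-glucopyranoside at 30 uM final. Compounds titrated, 20 min at RT, red fluorescence read; AC50 from titration.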
Consider `O=C(c1ccc2c(=O)n(Cc3ccco3)c(=S)[nH]c2c1)N1CCN(c2ccccc2)CC1`, for which the Potency is inactive: > 76.9 µM. The figure for `CS(=O)(=O)N1CCc2cc(S(=O)(=O)Nc3ccc4oc5c(c4c3)CCCC5)ccc21` is inactive: > 76.9 µM; for `CCc1nc2cc(Cl)c(Cl)cc2[nH]1` it is inactive: > 76.9 µM; for `O=C(CSc1nc2c(c(=O)n1-c1ccc(F)cc1)SCC2)NCc1ccco1` it is inactive: > 76.9 µM. Consider `CC(C)c1ccc(-c2nc(N3CCCCC3)[nH]c(=O)c2C#N)cc1`, for which the Potency was inactive: > 76.9 µM. The figure for `O=C(Nc1ccc(Cl)cc1)c1ccc2c(c1)OCO2` is inactive: > 76.9 µM. For the compound `CCOC(=O)c1ccc(NC(=O)Cn2nnc(-c3ccccc3)n2)cc1`, the Potency was inactive: > 76.9 µM. In the case of `COc1ccccc1NC(=O)Cc1noc(CN(C)Cc2cccs2)n1`, the Potency is inactive: > 76.9 µM.

For `[N-]=[N+]=CC(=O)CNC(=O)[C@@H](Cc1ccccc1)N1C(=O)c2ccccc2C1=O`, the Potency was inactive: > 76.9 µM. The figure for `CCOC(=O)N1CCC(NC(=O)CCc2c(C)nc3nc(C)nn3c2C)CC1` is inactive: > 76.9 µM; for `Cc1ccc(C(=O)CCNc2ccccc2)o1` it is inactive: > 76.9 µM; for `O=C(O)COc1ccc(-c2nnn(CC(=O)O)n2)cc1` it is inactive: > 76.9 µM. Consider `COc1ccc(N(CC(=O)NC(C)(C)C)C(=O)c2ccco2)cc1`, for which the Potency was inactive: > 76.9 µM.

As to `CC(C)C(NC(=O)C12CC3CC(CC(C3)C1)C2)C(=O)O` (configuration not stated), the Potency is inactive: > 76.9 µM. Turning to `O=S(=O)(NCCOCC(F)(F)C(F)F)c1ccc2oc3ccccc3c2c1`, the Potency is inactive: > 76.9 µM. `NC(=O)c1oc2ccc(Cl)cc2c1NC(=O)CN1CCOCC1`: the Potency was inactive: > 76.9 µM. Then `CCS(=O)(=O)N1CCCC(C(=O)NC2CCCC2)C1` (configuration not stated), with inactive: > 76.9 µM. Then `CC(=O)Nc1ccc(S(=O)(=O)Nc2ccc(N3CCOCC3)c(F)c2)cc1`, with inactive: > 76.9 µM; and `COc1cc(C2/C(=C(\O)c3cc(C)ccc3C)C(=O)C(=O)N2CCN(C)C)ccc1O` (configuration not stated), with inactive: > 76.9 µM. Then `COc1ccc(CC(=O)N2CCCc3ccccc32)cc1OC`, with inactive: > 76.9 µM; and `COc1ccc(-c2nnc3ccc(SC)nn23)cc1`, with inactive: > 76.9 µM; and `O=S(=O)(Nc1cccnc1)c1ccc(C2CCCCC2)cc1`, with inactive: > 76.9 µM. As for `CCOC(=O)CN(C(=O)CSc1nnc(CNc2ccc(C)cc2C)n1CC)c1ccccc1`, the Potency is inactive: > 76.9 µM.

Turning to `Cc1ccc(S(=O)(=O)c2cc3c(=O)n4ccccc4nc3n(CC3CCCO3)c2=N)cc1C` (configuration not stated), the Potency was inactive: > 76.9 µM.

With `COc1cc2c(cc1OC)CN(C(=O)c1cc3ccccc3oc1=O)CC2`, the Potency was inactive: > 76.9 µM. The figure for `CC(C)C(OC(=O)C1CCCO1)C(=O)NC1CCCC1` (configuration not stated) is inactive: > 76.9 µM; for `O=C(c1ccccc1)c1nc2ccccc2[nH]c1=O` it is inactive: > 76.9 µM. Take `O=C(NCc1cccs1)c1cnn2cccnc12`: the Potency was inactive: > 76.9 µM.

Turning to `O=C1CC(Nc2ccccc2)C(=O)N1c1ccc(N2CCOCC2)cc1` (configuration not stated), the Potency was inactive: > 76.9 µM. With `COc1ccc(C)cc1NC(=O)c1nc2nc(C)cc(C)n2n1`, the Potency is inactive: > 76.9 µM.

Consider `CCOc1cc(-c2c(C#N)c(=O)[nH]c3c2c(C)nn3-c2ccc(F)cc2)ccc1O`, for which the Potency entry is “inactive”. As to `CCSc1nnc([C@@H]2CCCN2C(=O)OC(C)(C)C)o1`, the Potency was inactive: > 76.9 µM. For the compound `COc1ccc(C)cc1NC(=O)CSc1nnc(-c2ccc(OC)c(OC)c2)n1N`, the Potency is inactive: > 76.9 µM.

For `CCOC(=O)c1cccc(NC(=O)CN(c2ccc(OC)cc2)S(=O)(=O)c2c(C)noc2C)c1`, the Potency is inactive: > 76.9 µM. Then `CCOC(=O)Cc1nnc2c(Nc3ccccc3F)nc3nonc3n12`, with inactive: > 76.9 µM; and `CC1(C)C(=O)C2(CCCC2)C(=O)OC1c1ccco1` (configuration not stated), with inactive: > 76.9 µM; and `CSc1nc(N2CCOCC2)c2c3c(sc2n1)CCCC3`, with inactive: > 76.9 µM.

Take `CCN1CCCC1CNC(=O)CCNC(=O)c1cc(OC)c(OC)c(OC)c1` (configuration not stated): the Potency is inactive: > 76.9 µM. The figure for `Cc1ccc(C(C)C)c(OCCNS(C)(=O)=O)c1` is inactive: > 76.9 µM; for `COc1ccc(C(NC(=O)c2ccco2)c2ccc(OC)c(OC)c2)cc1OC` it is inactive: > 76.9 µM. In the case of `O=C(CCNS(=O)(=O)c1cccs1)Nc1ccccc1F`, the Potency is inactive: > 76.9 µM. Regarding `CCC(C)[C@H](NC(=O)NCc1ccccc1Cl)C(=O)O` (some centres not stated), the Potency is inactive: > 76.9 µM. As for `Nc1cc(=O)[nH]n1C1CCN(c2ccccc2)CC1`, the Potency was inactive: > 76.9 µM. Then `COc1ccc2nc(NC(=O)CSc3nc4ccccc4o3)sc2c1`, with inactive: > 76.9 µM; and `Cc1cc(C)nc(N2CCN(c3nc(C)cc(C)n3)CC2)n1`, with inactive: > 76.9 µM; and `O=C(O)CCc1nn2c3ccccc3nc2n(-c2ccccc2)c1=O`, with inactive: > 76.9 µM.

As for `CCOC(=O)CCc1c(C)n(CC)c2cc(-c3ccccc3OC)nn2c1=O`, the Potency is inactive: > 76.9 µM.

For the compound `CCC(=NC(C)c1ccccc1)c1c(O)n(C)c(=O)n(C)c1=O` (configuration not stated), the Potency was inactive: > 76.9 µM. The figure for `CCc1ccc(S(=O)(=O)NCc2cn3cccc(C)c3n2)s1` is inactive: > 76.9 µM; for `Cn1c(=O)n(Cc2ccco2)c(=N)c2c3c(sc21)CCC3` it is inactive: > 76.9 µM; for `Nc1c(NC2CCCCC2)c2ccccc2oc1=O` it is inactive: > 76.9 µM. The figure for `Cc1ccc(-c2nnn(CC(=O)Nc3ccccc3-c3ccccc3)n2)c(-n2cnnn2)c1` is inactive: > 76.9 µM; for `CCCNC(=O)c1ccccc1NS(=O)(=O)c1ccc(OC)c(OC)c1` it is “inactive”.

For `CC(C)CCOc1ccc(C(=O)NCCC(=O)N2CCOCC2)cc1`, the Potency is inactive: > 76.9 µM. The figure for `COc1ccccc1NC(=O)NCC(=O)Nc1ccc(F)c(F)c1` is inactive: > 76.9 µM; for `CCN(CC)C(=O)c1sc2nc(-c3ccncc3)[nH]c(=O)c2c1C` it is inactive: > 76.9 µM. Then `Cn1c(SCC(=O)c2ccc(F)cc2)nc2cccnc21`, with inactive: > 76.9 µM; and `COc1ccccc1C(=O)NC(C)C(c1cccs1)N1CCN(C)CC1` (configuration not stated), with inactive: > 76.9 µM. The figure for `CN(C)c1oc(COc2ccccc2F)nc1C#N` is inactive: > 76.9 µM; for `CCOc1ccc(-n2c(SCC(=O)NC(C)CC)nc3n[nH]c(C)c3c2=N)cc1` (configuration not stated) it is inactive: > 76.9 µM. `O=C(COc1ncnc2c(Cl)cc(Cl)cc12)N1CCCCC1`: the Potency is inactive: > 76.9 µM.

For the compound `O=C(Nc1sccc1C(=O)N1CCOCC1)c1cccnc1`, the Potency was inactive: > 76.9 µM. Then `O=C(CCc1nc(-c2ccccc2F)no1)NC1CCCCCC1`, with inactive: > 76.9 µM; and `Cn1c(=O)c2cc(NC(=O)c3ccccc3Cl)c(=O)oc2n(C)c1=O`, with inactive: > 76.9 µM; and `O=C1CCCc2nc(NCc3ccco3)ncc21`, with inactive: > 76.9 µM. The figure for `CCOC(=O)Cc1c(C)nc(-c2ccccc2)[nH]c1=O` is inactive: > 76.9 µM.

On to `CCS(=O)(=O)N1CCC(C(=O)NCc2ccc(F)cc2Cl)CC1`, for which the Potency is inactive: > 76.9 µM. As to `Nc1nc(-c2ccccc2)nn1C(=O)Cc1ccccc1`, the Potency was inactive: > 76.9 µM. The entry for `C1CCC(c2nn3c(-c4n[nH]c5c4CCC5)nnc3s2)CC1` is “inactive”; for `N#Cc1nc(-c2ccco2)oc1NCCCn1ccnc1` it is inactive: > 76.9 µM. Then `CCOC(=O)c1ccc(CNC(=O)C2CCCCC2C(=O)OCC(F)(F)F)o1` (configuration not stated), with inactive: > 76.9 µM; and `Cc1cc(C)cc(OC(=O)N2CCOCC2)c1`, with inactive: > 76.9 µM; and `COc1cccc(-n2c(SCc3c(C)noc3C)nnc2-c2cccc(S(=O)(=O)N(C)C)c2)c1`, with inactive: > 76.9 µM. The figure for `Cc1noc(C)c1S(=O)(=O)N1CCC(C(=O)Nc2ccccn2)CC1` is inactive: > 76.9 µM; for `O=C(NCCNC(=O)c1ccco1)c1cccc(F)c1` it is inactive: > 76.9 µM. Regarding `CCCCC(=O)NC1(C(F)(F)F)C(=O)Nc2c1c(=O)[nH]c(=O)n2Cc1ccco1` (configuration not stated), the Potency was inactive: > 76.9 µM. With `CCCCOc1ccc(C2CC(=O)NC2=O)cc1` (configuration not stated), the Potency is inactive: > 76.9 µM. Consider `O=S(=O)(Cc1ccccc1)N1CCN(C/C=C/c2ccccc2)CC1`, for which the Potency was inactive: > 76.9 µM. With `CC1(C)CC(=O)C2=C(C1)N(c1cccc(O)c1)C1=C(C2)C(=O)CC(C)(C)C1`, the Potency is inactive: > 76.9 µM. In the case of `Cc1cc(C(=O)OCC(=O)Nc2ncc(C(F)(F)F)cc2Cl)c(C)o1`, the Potency is inactive: > 76.9 µM. `COc1ccc(OC)c(S(=O)(=O)N2CCC(C(=O)NCCC3=CCCCC3)CC2)c1`: the Potency is inactive: > 76.9 µM. The figure for `CCOC(=O)N1CCN(Cc2nc(-c3ccc(C)cc3)no2)CC1` is inactive: > 76.9 µM; for `CCC(NC(=O)c1ccccc1NC(=O)c1ccccc1)C(=O)O` (configuration not stated) it is inactive: > 76.9 µM; for `CCCS(=O)(=O)N1CCCC(C(=O)N2CCC(Cc3ccccc3)CC2)C1` (configuration not stated) it is inactive: > 76.9 µM. Regarding `Cc1ccc(-n2c(C)cc3c2CCCC3=O)cc1`, the Potency is inactive: > 76.9 µM. Turning to `CS(=O)(=O)N1CCN(C(=O)c2ccccc2F)CC1`, the Potency is inactive: > 76.9 µM. Then `COc1ccc(CC(NC(C)=O)C(=O)NC2CCN(C(=O)Nc3ccc(C#N)cc3)CC2)cc1OC` (configuration not stated), with inactive: > 76.9 µM; and `CCCNC(=O)NCCc1ccncc1`, with inactive: > 76.9 µM; and `CCCCN(CC)S(=O)(=O)c1ccc(C(=O)Nc2nnc(CSC)o2)cc1`, with “inactive”. Then `C=CCSc1nnc(C)n1-c1ccc(Cl)cc1`, with inactive: > 76.9 µM; and `O=C1NC(c2cccs2)Nc2sc3c(c21)CCCC3` (configuration not stated), with inactive: > 76.9 µM; and `CC1(C)CC(n2c(=S)[nH]c3ccccc3c2=O)CCO1` (configuration not stated), with “inactive”.
